# Laboratory results reported in ChEMBL document CHEMBL4888484, “Replenishing the malaria drug discovery pipeline: Screening and hit evaluation of the MMV Hit Generation Library 1 (HGL1) against asexual blood stage Plasmodium falciparum ,using a nano luciferase reporter read-out” (2022).
# Hit rate of the full screen: of about 150,000 compounds, about 540 (0.36%) showed an effect of 50% or more. This is one part of the list.
# Test system: Plasmodium falciparum
# Assay: Primary screen in NF54 nanoGlo assay, in single point, at 2uM, 72h; a lower Z score goes with more inhibition
# Format: functional, Erythrocyte
# Conditions: timepoint 72 hour
SMILES,% Inhibition [%],Z score
CNC(=O)c1ccc(CN(C)c2ccc(C#N)c(Cl)c2)o1,-13,1.31
C=CCn1cc(CN2C[C@H]3CC[C@H]2C3)c(C)n1,-2,0.33
CN1C[C@@]2(Cc3c1ccc1ccccc31)C(=O)NC(=O)N(C(C)(C)C)C2=O,-8,1.29
CCc1ncnc(NC[C@@H]2CCCN3CCCC[C@H]23)c1F,-6,0.99
c1ccc(C2=NC(c3ccccc3)N3CC23c2ccccc2)cc1 (centres undefined),-3,0.3
Cc1nccc(NCCN2CC3CCC(C2)O3)n1,2,-0.29
Cc1cncc([C@@H]2CCCN2Cc2n[nH]c3c2COCC3)c1,-2,0.44
COc1ccc(C(=O)N(c2ccc(C(C)C)cc2)C2(C(=O)NCc3ccccc3)CCN(C(C)=O)CC2)cc1,-2,0.3
COc1cccc2c1O[C@H](c1ccccc1)C1(C2)C(=O)NC(=O)NC1=O,-10,1.27
COc1ccc(C(=O)N2C[C@@H]3COCCN3C3(CN(C(=O)COc4ccccc4)C3)C2)cc1,2,-0.38
O=C(Cc1cnccn1)N1C[C@H]2CC[C@@H](C1)N(Cc1ccccn1)C2,-7,1.45
COc1nc(C)ccc1CNc1ncccc1C(=O)N1CCCCC1,-11,0.97
COc1cc(=O)n2c(c1C(=O)O)CCCC2.NC1(c2nc(C3CC3)no2)CCCCC1,-16,1.77
CCCNC(=O)N1C[C@@H](c2cccc(F)c2F)[C@@H]2[C@H]1C1CCN2CC1,-9,1.43
O=C(c1ccccc1F)N1C[C@@H](c2ccc3c(c2)OCO3)[C@@H]2[C@H]1C1CCN2CC1,3,-0.53
Cc1ccc(CC(C)NC(C)CCCC(C)(C)O)cc1 (centres undefined),1,-0.15
CS(=O)(=O)N1C[C@@H]2CC[C@H]1CN(Cc1ccccn1)C2,-8,1.07
CC12CCN(CC3(C#N)CC3)CC1C2(F)F (centres undefined),-6,0.78
Cc1cc(C)cc(-c2nc(-c3ccc4c(c3)oc(=O)n4C(C)C)no2)c1,-4,0.82
CN1C(C(=O)N2CCC3(CC2)OCCO3)=CC(c2ccco2)=NS1(=O)=O,-13,2.53
CN(C)C1CCC2C3CC[C@H]4CC(O)CC[C@]4(C)C3CC[C@@]21C (some centres undefined),2,-0.29

SMILES,% Inhibition [%],Z score
CC(=O)N(CC1CN(Cc2sccc2C)CC1c1ccc(C)cc1)C1CCCCC1 (centres undefined),12,-1.7
COc1cc(CN[C@@H](C)Cc2ccncc2)ccc1OCC=C(C)C,-12,1.11
Cc1c(C)[n+]([O-])c([C@@H](c2ccc3c(c2)n(C)c(=O)n3C)C2C(=O)N(C)C(=O)N(C)C2=O)n1Cc1ccccc1,-8,0.97
CN(Cc1cnccn1)S(=O)(=O)c1cc(Br)c(C#N)cc1F,-14,2.05
CC(C)N1CCc2nc(NC(=O)c3ccc(-c4noc(=O)[nH]4)cc3)sc2C1,-6,0.66
CCn1nc(C)c(CN2C[C@H](C(=O)O)[C@@H](c3ccc(F)cc3)C2)c1C,-13,1.29
CC1CC1C(=O)N1CC(CS(=O)(=O)F)C1 (centres undefined),-17,1.78
CC(C)C(NCc1ncccc1Cl)C(O)c1ccc(Cl)cc1 (centres undefined),2,-0.3
Cc1ccc(CN2C[C@@H]3CC[C@H]2CN(C)C3)s1,-10,1.98
CN(c1ccccc1Oc1ccccc1)S(=O)(=O)c1ccc2[nH]c(=O)oc2c1,-12,1.37
C[C@H](NCCc1ccc2c(c1)OCO2)c1ccc(=O)[nH]n1,-2,0.33
CC(NCc1ccncc1F)C(c1ccccc1)N(C)C (centres undefined),-3,0.36
Cc1ncn(CC(=O)N2C[C@H]3COc4ccccc4C[C@@]3(C(=O)O)C2)c1C,-10,1.64
CC1CN2c3ccccc3CC3(C(=O)NC(=O)NC3=O)C2C(C)O1 (centres undefined),-5,0.74
CC(C)[C@@H]1CN(C(=O)COc2ccccc2O)CCCN1CC1CC1,-4,0.74
CC(C)=CCN1C[C@@H]2CC[C@H]1CN(Cc1c(C)noc1C)C2,0,0.05
CCOCC(=O)N1CCN(CCF)CC1,-16,2.04
Cc1cccc(N2CCC3(CCCN3Cc3[nH]cnc3C)CC2)n1,-2,0.46
O=C(c1ccc(-c2ccsc2)nc1)N1CCC2(CC1)OCCO2,-10,1.35
CN(Cc1nc2ccccc2c(=O)n1-c1ccc(F)cc1)c1ccn(C)n1,0,0.08
COc1cccc(C(=O)[C@H]2CCCN(C3CCC3)C2)c1,-1,0.12
